# Laboratory results: PMC7819943, “Rice protein-binding microarrays: a tool to detect cis-acting elements near promoter regions in rice”
# Some of the results follow.
# Target: T1, OsWOX13 (Oryza sativa, UniProt Q5QMM3 1-267)
# T1 sequence: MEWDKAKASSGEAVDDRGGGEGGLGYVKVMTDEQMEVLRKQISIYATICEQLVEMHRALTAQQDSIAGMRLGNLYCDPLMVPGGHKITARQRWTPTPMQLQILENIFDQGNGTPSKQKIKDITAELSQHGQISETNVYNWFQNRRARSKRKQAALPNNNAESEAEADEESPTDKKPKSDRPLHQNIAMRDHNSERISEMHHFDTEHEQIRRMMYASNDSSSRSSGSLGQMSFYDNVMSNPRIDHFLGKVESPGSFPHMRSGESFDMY
# Test: protein-binding microarray (RPBM); PBS, 2% BSA, 51.3 ng/ul salmon testes DNA, 50 uM zinc acetate, 200 nM TF, 25 C, 1 h; high values mean tight binding
# Settings: protein: recombinant; tags: N-terminal polyhistidine and DsRed monomer fusion (pET32a); label: CyDye5-dUTP incorporated in the synthesized complementary strand; 3' TTTTT single-stranded linker to array surface; dsDNA, one strand shown
# Method in brief: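 A custom Agilent array was converted to double-stranded form by primer extension with Cy5-dUTP and blocked with 2% BSA. Protein at 200 nM in PBS with 2% BSA, salmon testes DNA and 50 µM zinc acetate was applied for 1 h at 25 °C, followed by washing. The proteins were polyhistidine–DsRed N-terminal fusions of transcription factors, expressed in E. coli BL21-CodonPlus and Ni–NTA-purified. The binding signal is per-feature fluorescence intensity (arbitrary units) from an Axon 4000B scanner.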
row,Sequence,binding signal
1,AAGAATTAATTAAACTCAAAGTGGTAGAAGAACTATTTAGCGGAGTCACCTAGTGCAG,13900 fluorescence intensity (a.u.)
2,TTTAATTAATCATACTCTAATCCATAGCTCTTTTACTTGCCGGAGTCACCTAGTGCAG,26900 fluorescence intensity (a.u.)
3,AATGTTACAAATTGAAAATATACCGTCAAGATTGTATATGCGGAGTCACCTAGTGCAG,8400 fluorescence intensity (a.u.)
4,AGTAAACAATGATTAATTATGTTGTTAATTATAAGAAACTCGGAGTCACCTAGTGCAG,20700 fluorescence intensity (a.u.)
5,TCTAATAGCAATAGATGACTGGTGGTGACGCGTAACGTAGCGGAGTCACCTAGTGCAG,15600 fluorescence intensity (a.u.)
6,ATTCGTCTATCTTTATCAATTTGCGATGTAAATCGTCTGCCGGAGTCACCTAGTGCAG,5520 fluorescence intensity (a.u.)
7,CCTTAACTAATCAAAACCGGTCACAATAGATCCTTCGGTGCGGAGTCACCTAGTGCAG,13500 fluorescence intensity (a.u.)
8,ATAGATGATTTGCCGCTAGTAGTGGGCTATATGGGCAGTCCGGAGTCACCTAGTGCAG,24500 fluorescence intensity (a.u.)
9,ACAACACATCATTGACACACAACTATACCAACGTTCTATCCGGAGTCACCTAGTGCAG,5730 fluorescence intensity (a.u.)
10,ATATATATATATATATACAGATATACACACACACACACCGCGGAGTCACCTAGTGCAG,15300 fluorescence intensity (a.u.)
11,AAAATATTTTACATAATTATAATTTATTATTGAGTGAATTCGGAGTCACCTAGTGCAG,11200 fluorescence intensity (a.u.)
12,CAGAATGGACCTAATTAACGACCACCATCAGCAGAAAATGCGGAGTCACCTAGTGCAG,12100 fluorescence intensity (a.u.)
13,GGGCCTGGTCCTGATTGGACTTCCTTATCTGTCTATCACACGGAGTCACCTAGTGCAG,10700 fluorescence intensity (a.u.)
14,TTAGATTAGAGGAAGATGGGGTTGGTACGTGCGTTGGTAACGGAGTCACCTAGTGCAG,7960 fluorescence intensity (a.u.)
15,ATAACTGAACTGATTTGTTTCAGGATAAGTAAGAATAACACGGAGTCACCTAGTGCAG,6950 fluorescence intensity (a.u.)
16,AAAGTAGTTCAATTAGAAATAAATTAAAAGAACTGGTAAACGGAGTCACCTAGTGCAG,6810 fluorescence intensity (a.u.)
17,GGCATGTATCCAATTAACGCTTACAACTATAGGTACCGGTCGGAGTCACCTAGTGCAG,3430 fluorescence intensity (a.u.)
18,ACTCTTTAACTGATTTGGGTAATCAAACTAAATGTTCACTCGGAGTCACCTAGTGCAG,17200 fluorescence intensity (a.u.)
19,AATATATTAATTGATTACGAGAGTTTTACTTCAGTGGCAACGGAGTCACCTAGTGCAG,25500 fluorescence intensity (a.u.)
20,ATTGAGTCAATCCACACTTTATTAGCACATTGGCCCACACCGGAGTCACCTAGTGCAG,3510 fluorescence intensity (a.u.)
21,TTACAAGAGATTGACAATTCACTTCATCTTTGATTAGATGCGGAGTCACCTAGTGCAG,33800 fluorescence intensity (a.u.)

row,Sequence,binding signal
1,ATTAATTACGATATATACAGAGTGCTGTGTGCTCTTGACTCGGAGTCACCTAGTGCAG,12900 fluorescence intensity (a.u.)
2,TCTTACTTAACATATTTAATAATCATGGTTCTTTCAATAACGGAGTCACCTAGTGCAG,3300 fluorescence intensity (a.u.)
3,TTAATTAGACTGGGAGGCCTGTTCTTGTTCTTTAATTTAGCGGAGTCACCTAGTGCAG,35500 fluorescence intensity (a.u.)
4,ATCTTGGTAAATTGGTCCTTGGTTACTCCGATTTGTTGGACGGAGTCACCTAGTGCAG,5000 fluorescence intensity (a.u.)
5,TATTATAATGTTGATTTGATTTGACTAATAATTAAGGCCACGGAGTCACCTAGTGCAG,30100 fluorescence intensity (a.u.)
6,GTTGGAGAGAAATTAGGATTGGATTGATTCATATCGAGCTCGGAGTCACCTAGTGCAG,13200 fluorescence intensity (a.u.)
7,AACAAATTACAAAACCCAGCTCTGATCTTGCACGCGCTGACGGAGTCACCTAGTGCAG,6620 fluorescence intensity (a.u.)
8,TCTGATAGAAGCTTGACTGAACATTGAACAGTTTTAGTCTCGGAGTCACCTAGTGCAG,43900 fluorescence intensity (a.u.)
9,CATTGATTTTGTTTTATTATTTTGGTTGGTGGTGCCGTGTCGGAGTCACCTAGTGCAG,39100 fluorescence intensity (a.u.)
10,CGTCCATCATCTCCATTTTGTTCTCTGTCTCTTCCCCTTGCGGAGTCACCTAGTGCAG,3610 fluorescence intensity (a.u.)
11,CATCTTGTCCTGGTGGATTGATTGGAGGTGGTCTTCGTGCCGGAGTCACCTAGTGCAG,18900 fluorescence intensity (a.u.)
12,CACTGATTTTGATAGTTGAGGGACCCGTTGTATTTGATTTCGGAGTCACCTAGTGCAG,21500 fluorescence intensity (a.u.)
13,CCCAAAATTAAATTTTAAAATCTAATTTTGGTAGCGATTGCGGAGTCACCTAGTGCAG,41900 fluorescence intensity (a.u.)
14,TAGTGATTGATTCTCTACTGTTGCACCAATCATGATTGCGCGGAGTCACCTAGTGCAG,38000 fluorescence intensity (a.u.)
15,CTCCCTATCAATTTCCATCTCCCCTGTCAAACAAGATATTCGGAGTCACCTAGTGCAG,7060 fluorescence intensity (a.u.)
16,CACTACTTATCCAATCACAACCCTACATCACTCACTTCTACGGAGTCACCTAGTGCAG,6030 fluorescence intensity (a.u.)
17,CAGGTCTAATTTTGGACAGCAGACATAATTTTGTCTGTGCCGGAGTCACCTAGTGCAG,5690 fluorescence intensity (a.u.)
18,CTGTCCAATCACATTGCATCGCCATCACTTGAGTCCGTTTCGGAGTCACCTAGTGCAG,14200 fluorescence intensity (a.u.)
19,TTCTTCCTATCTTGATTACATTGAATGACCTCCTTCGGTTCGGAGTCACCTAGTGCAG,7310 fluorescence intensity (a.u.)
20,TGGTAATTACTCCCTTTAATTTGAAGGAACCCTATAGTTTCGGAGTCACCTAGTGCAG,27700 fluorescence intensity (a.u.)
21,GTTGATTAGCATATATTATTGGTTGCATGTTAGGCTTCCACGGAGTCACCTAGTGCAG,54700 fluorescence intensity (a.u.)
